# Assay results reported in article PMC9911399, “Two distinct binding modes provide the RNA-binding protein RbFox with extraordinary sequence specificity”.
# Positions count from the first letter of the chain named. The list shows a part of the results.
# T1: RBFOX1 RRM (Homo sapiens, UniProt Q9NWB1 109-208)
# T1 sequence: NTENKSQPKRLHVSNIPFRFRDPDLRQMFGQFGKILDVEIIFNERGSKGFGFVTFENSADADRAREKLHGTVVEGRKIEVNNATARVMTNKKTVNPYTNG
# B1: UUCGGGC (DNA:RNA)
# RNA: GGGAGACCGGAAUUCAGAUUGUCCUUCGGGCUUAAAUCCCGUCGUAGCCACCA
# DNA 1: CAATCTGAATTCCGGTCTCCC
# DNA 2: TGGTGGCTACGACGGGATT
# B2: UUGUGUG (DNA:RNA)
# RNA: B1 RNA with C27G, G28U, G30U, C31G
# DNA 1: CAATCTGAATTCCGGTCTCCC
# DNA 2: TGGTGGCTACGACGGGATT
# B3: UGAUCGU (DNA:RNA)
# RNA: B1 RNA with U26G, C27A, G28U, G29C, C31U
# DNA 1: CAATCTGAATTCCGGTCTCCC
# DNA 2: TGGTGGCTACGACGGGATT
# B4: AGUAUGU (DNA:RNA)
# RNA: B1 RNA with U25A, U26G, C27U, G28A, G29U, C31U
# DNA 1: CAATCTGAATTCCGGTCTCCC
# DNA 2: TGGTGGCTACGACGGGATT
# B5: GUGCUAA (DNA:RNA)
# RNA: B1 RNA with U25G, C27G, G28C, G29U, G30A, C31A
# DNA 1: CAATCTGAATTCCGGTCTCCC
# DNA 2: TGGTGGCTACGACGGGATT
# B6: GGCGCCC (DNA:RNA)
# RNA: B1 RNA with U25G, U26G, G29C, G30C
# DNA 1: CAATCTGAATTCCGGTCTCCC
# DNA 2: TGGTGGCTACGACGGGATT
# B7: CUGUAUA (DNA:RNA)
# RNA: B1 RNA with U25C, C27G, G28U, G29A, G30U, C31A
# DNA 1: CAATCTGAATTCCGGTCTCCC
# DNA 2: TGGTGGCTACGACGGGATT
# B8: GCAGGCA (DNA:RNA)
# RNA: B1 RNA with U25G, U26C, C27A, G30C, C31A
# DNA 1: CAATCTGAATTCCGGTCTCCC
# DNA 2: TGGTGGCTACGACGGGATT
# B9: GUGAUCU (DNA:RNA)
# RNA: B1 RNA with U25G, C27G, G28A, G29U, G30C, C31U
# DNA 1: CAATCTGAATTCCGGTCTCCC
# DNA 2: TGGTGGCTACGACGGGATT
# B10: ACGAUAU (DNA:RNA)
# RNA: GGGAGACCGGAAUUCAGAUUGUCCACGAUAUUUAAAUCCCGUCGUAGCCACCA
# DNA 1: CAATCTGAATTCCGGTCTCCC
# DNA 2: TGGTGGCTACGACGGGATT
# B11: UGAUAUU (DNA:RNA)
# RNA: B10 RNA with A25U, C26G, G27A, A28U, U29A, A30U
# DNA 1: CAATCTGAATTCCGGTCTCCC
# DNA 2: TGGTGGCTACGACGGGATT
# B12: AUUUUUA (DNA:RNA)
# RNA: B10 RNA with C26U, G27U, A28U, A30U, U31A
# DNA 1: CAATCTGAATTCCGGTCTCCC
# DNA 2: TGGTGGCTACGACGGGATT
# B13: UAUGGAA (DNA:RNA)
# RNA: B1 RNA with U26A, C27U, G30A, C31A
# DNA 1: CAATCTGAATTCCGGTCTCCC
# DNA 2: TGGTGGCTACGACGGGATT
# B14: GGUAAGG (DNA:RNA)
# RNA: B10 RNA with A25G, C26G, G27U, U29A, A30G, U31G
# DNA 1: CAATCTGAATTCCGGTCTCCC
# DNA 2: TGGTGGCTACGACGGGATT
# B15: GGGACAG (DNA:RNA)
# RNA: B10 RNA with A25G, C26G, U29C, U31G
# DNA 1: CAATCTGAATTCCGGTCTCCC
# DNA 2: TGGTGGCTACGACGGGATT
# B16: UAACCCA (DNA:RNA)
# RNA: B1 RNA with U26A, C27A, G28C, G29C, G30C, C31A
# DNA 1: CAATCTGAATTCCGGTCTCCC
# DNA 2: TGGTGGCTACGACGGGATT
# B17: CAGUCCU (DNA:RNA)
# RNA: B10 RNA with A25C, C26A, A28U, U29C, A30C
# DNA 1: CAATCTGAATTCCGGTCTCCC
# DNA 2: TGGTGGCTACGACGGGATT
# B18: CACGGUG (DNA:RNA)
# RNA: B1 RNA with U25C, U26A, G30U, C31G
# DNA 1: CAATCTGAATTCCGGTCTCCC
# DNA 2: TGGTGGCTACGACGGGATT
# B19: GAUUUAG (DNA:RNA)
# RNA: B10 RNA with A25G, C26A, G27U, A28U, U31G
# DNA 1: CAATCTGAATTCCGGTCTCCC
# DNA 2: TGGTGGCTACGACGGGATT
# B20: GCGAUAG (DNA:RNA)
# RNA: B10 RNA with A25G, U31G
# DNA 1: CAATCTGAATTCCGGTCTCCC
# DNA 2: TGGTGGCTACGACGGGATT
# Target: T1, RBFOX1 RRM
# Assay: EMSA; HiTS-Eq, 1 nM pool, 10 min; buffer printed only for the single-RNA assays: 10 mM Tris pH 7.5, 150 mM NaCl, 3.4 mM EDTA, 0.001% NP-40, 30 C
# Settings: tags: His6 N-terminal (pET28a); label: 5' 32P
# Outline: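 Relative association constants, normalised to the cognate motif, were derived by comparing read counts of each RNA species with those of the control reaction. The RNA sequenced was the free fraction, separated by 8% native PAGE after a 10 min equilibration in 50 µL of 1 nM 5′-radiolabelled RNA (7 randomized nucleotides) with increasing concentrations of purified wild-type or mutant RbFox RRM.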
row,Binder,binding signal
1,B1,0.0034 KA relative to UGCAUGU
2,B2,0.0403 KA relative to UGCAUGU
3,B3,0.0285 KA relative to UGCAUGU
4,B4,0.016 KA relative to UGCAUGU
5,B5,0.0105 KA relative to UGCAUGU
6,B6,0.00325 KA relative to UGCAUGU
7,B7,0.00639 KA relative to UGCAUGU
8,B8,0.0204 KA relative to UGCAUGU
9,B9,0.0154 KA relative to UGCAUGU
10,B10,0.00456 KA relative to UGCAUGU
11,B11,0.01 KA relative to UGCAUGU
12,B12,0.00169 KA relative to UGCAUGU
13,B13,0.00514 KA relative to UGCAUGU
14,B14,0.00518 KA relative to UGCAUGU
15,B15,0.0312 KA relative to UGCAUGU
16,B16,0.000379 KA relative to UGCAUGU
17,B17,0.00507 KA relative to UGCAUGU
18,B18,0.0129 KA relative to UGCAUGU
19,B19,0.0121 KA relative to UGCAUGU
20,B20,0.0166 KA relative to UGCAUGU
